PubChem BioAssay AID686971 (National Center for Advancing Translational Sciences (NCATS), 2013)
In all, about 360,000 compounds went through this assay and about 7,500 (2.1%) were called active. The shares of active, inactive and inconclusive entries below differ from those in the screen. Calls follow the shape of the dose curve; as a rule, active = well fitted cell-killing curve with a large enough effect; inconclusive = small, poorly fitted or top-dose-only effect, or effect the other way, or another doubt; inactive = no such curve, though single readings can be large or run the other way. No potency is given beside an inconclusive call; the fits are too rough.

Assay: qHTS for induction of synthetic lethality in tumor cells producing 2HG: qHTS for the HT-1080-IDH1KD cell line;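 as to activity, negative = toxicity: 0% = DMSO wells and -100% = cell-free medium wells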
Details: HT-1080 IDH1 knockdown viability, ATP luminescence, 48 h; activity, negative = toxicity: at 46.1 µM (top of the series) unless noted
Method in brief: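 Luminescent ATP read-out (CellTiter-Glo, 10 min at room temperature) after 48 h compound exposure at 37 °C gave viability of IDH1-knockdown HT-1080 cells. Activity was normalised to DMSO and cell-free wells, then fitted as concentration-response curves.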
Potency is read from the fitted curve at half-maximal effect; tags tell the direction and shape of the fitted curve.

Row | Structure (SMILES) | Potency | activity, negative = toxicity
1 | Cc1cccc(C)c1NC(=O)Nc1nc(C(N)c2ccccc2Cl)cs1 (stereo not drawn) | inconclusive [cytotoxic, single point] | 
2 | Cc1ccc(S(=O)(=O)N(C)c2ccc(C(=O)Nc3cccc(C)n3)cc2)cc1 | inactive | 
3 | Cc1occc1-c1nnc(SCC(=O)c2ccc(F)cc2)n1Cc1ccco1 | inactive | 
4 | Cc1cc(N)c2cc(NC(=O)/C=C/c3ccccc3Cl)ccc2n1 | inconclusive [cytotoxic, single point] | 
5 | N/C(=N\OC(=O)c1ccccc1Cl)c1ccccn1 | inconclusive [cytotoxic, single point] | 
6 | CC(OCC(O)CNCC1COc2ccccc2O1)c1ccc(Cl)cc1 (stereo not drawn) | inconclusive [cytotoxic, partial curve] | 
7 | Cc1ccc(CN2CCSc3ccc(C(=O)NCCCN4CCN(C)CC4)cc32)cc1 | inconclusive [cytotoxic, single point] | 
8 | COc1ccc(CCNC(=O)c2cccnc2)cc1 | inactive | 
9 | CCN(c1ccccc1)S(=O)(=O)c1nnc(NC(=O)C(C)(C)C)s1 | inconclusive [cytotoxic, partial curve] | 
10 | Cc1cccc(C)c1NC(=O)CNC(=O)c1ccncc1 | inactive | 
11 | N#Cc1nc(COc2ccccc2Cl)oc1NCc1ccc(F)cc1 | inconclusive [cytotoxic, single point] | 
12 | Nc1n[nH]c(C2CC2)c1N=Nc1ccc(Cl)c(Cl)c1 | inconclusive [cytotoxic, single point] | 
13 | COc1ccc(-c2cc(C#N)nc(NN)n2)cc1 | inconclusive [cytotoxic, single point] | 
14 | Cc1cccc2cc3c(NC(=O)c4ccccn4)nn(C)c3nc12 | inconclusive [cytotoxic, single point] | 
15 | CSc1nsc(SCC(=O)N2CCCCC2)n1 |  | inconclusive: 31.6%
16 | Cc1cccc(NC(=O)CCc2c(C)nn(-c3ccc(N4CCCCC4)nn3)c2C)c1 | inactive | 
17 | Cc1ccc2c(c1)c1c3n2CCN(CCC#N)C3CCC1 (stereo not drawn) | inactive | 
18 | COc1ccc(-c2c[n+](CC(=O)OC3CC(C)CCC3C(C)C)c3n2CCC3)cc1 (stereo not drawn) | active: 20.6 µM | 
19 | CCn1c(SCC(=O)N/N=C/C(C)=C/c2ccco2)nnc1-c1ccccc1 | inactive | 
20 | CCC(=O)N(c1nnc(SCC(=O)c2ccc[nH]2)s1)C1CC1 | inactive | 
21 | Cc1[nH]c2ccccc2c1C(=O)COC(=O)C1CC(O)CN1S(=O)(=O)c1ccc(Cl)cc1 (stereo not drawn) | inconclusive [cytotoxic, partial curve] | 
22 | CCCCCC(O)(CCCCC)C(=O)NNc1ccccc1 | inconclusive [cytotoxic, partial curve] | 
23 | CCOc1cc(C=NNC(=O)CCCC(=O)NN=Cc2ccc(O)c(OCC)c2)ccc1O | inactive | 
24 | CC(=O)C1CCC2C3CC(C)=C4CC(O)CCC4(C)C3CCC12C (stereo not drawn) | inconclusive [cytotoxic, single point] | 
25 | CN(C)c1nc(C=C(C#N)C#N)c(Cl)n1-c1ccc(F)cc1 | active: 4.61 µM | 

Row | Structure (SMILES) | Potency | activity, negative = toxicity
26 | O=C(CSc1ncn[nH]1)N/N=C/c1ccc(C(F)(F)F)cc1 | inactive | 
27 | COc1cc(/C=N/Nc2ccccc2)ccc1OC(=O)c1cccs1 | inconclusive [cytotoxic, single point] | 
28 | COC(=O)c1ccccc1SC(CC(=O)c1ccccc1)c1ccc(F)cc1 (stereo not drawn) | inconclusive [cytotoxic, single point] | 
29 | NC(Cc1ccc(Cl)cc1)c1csc(Nc2ccc(S(N)(=O)=O)cc2)n1 (stereo not drawn) | inconclusive [cytotoxic, single point] | 
30 | CCc1ccc(OCCNC(=O)c2ccccc2SCc2ccc(F)cc2)cc1 | inactive | 
31 | Cc1cccc(N=C2NC(=O)/C(=C/c3cccs3)S2)c1 | inactive | 
32 | O=S(=O)(NCc1c(Cl)cccc1Oc1ccccc1)c1ccccc1 | inconclusive [cytotoxic, single point] | 
33 | CCOc1ccc(C2c3[nH]c4ccccc4c3CCN2Cc2cccn2-c2ncccn2)cc1 (stereo not drawn) | inconclusive [cytotoxic, partial curve] | 
34 | Cc1cccc(NC(=O)CN2CCCCCC2)c1 | inactive | 
35 | Cc1cc(NCCCn2ccnc2)n2ncc(-c3ccc(Cl)cc3)c2n1 | active: 11.2 µM | 
36 | Cc1ccc2c(c1)S/C(=C/c1ccc[n+](C)c1)N2CCO | inconclusive [cytotoxic, partial curve] | 
37 | O=c1[nH]c2cc3c(cc2cc1CN(Cc1ccccc1)Cc1nnnn1Cc1ccco1)OCCO3 |  | inconclusive: 13.2%
38 | COc1ccccc1CN1CCc2c([nH]c3ccccc23)C1 | inactive | 
39 | CCCCCCCCN1C(=O)[C@H](CC(=O)N2CCOCC2)C[C@@]2(C(=O)OC)CC(C)(C)CC=C12 | inconclusive [cytotoxic, single point] | 
40 | Nc1c(Cl)ncnc1N/N=C/c1ccc(O)cc1 | inconclusive [cytotoxic, single point] | 
41 | O=S(=O)(Nc1ccc2ccccc2c1)N1CCCCC1 | inconclusive [cytotoxic, partial curve] | 
42 | CCc1ccccc1NC(=O)C(C)n1nc([N+](=O)[O-])c(Br)c1C (stereo not drawn) | inconclusive [cytotoxic, partial curve] | 
43 | O=[N+]([O-])c1ccc(N2CCN(c3ccc(O)cc3)CC2)cn1 | inconclusive [cytotoxic, partial curve] | 
44 | CCN(CC)CCOc1cccc(C(C)C)c1 | inactive | 
45 | CCc1ccc(-c2csc(-c3c[nH]c4ccccc34)n2)cc1 | inconclusive [cytotoxic, single point] | 
46 | O=C(Nc1nnc(-c2ccco2)o1)c1ccc(Cl)s1 | inconclusive [cytotoxic, partial curve] | 
47 | COc1cc(SC)ccc1C(=O)NCCOc1c(C)cc(C)cc1C | inconclusive [cytotoxic, partial curve] | 
48 | Cn1cnnc1SCC(=O)N1CCc2ccccc2C1 | inactive | 
49 | COC(=O)c1c(-c2ccccc2)csc1NC(=O)c1ccco1 | inactive | 
50 | O=C(c1ccco1)N1CCN(C(=O)c2ccccc2OC(=O)C23CC4CC(CC(C4)C2)C3)CC1 | inconclusive [cytotoxic, single point] | 

Row | Structure (SMILES) | Potency | activity, negative = toxicity
51 | FC(F)(F)c1cc(CCN2C(=S)NC[C@@H]2CC2CCCCC2)cc(C(F)(F)F)c1 | inactive | 
52 | O=C(N/N=C/c1ccc2c(c1)OCO2)C1COc2ccccc2O1 (stereo not drawn) | inconclusive [cytotoxic, single point] | 
53 | O=C(c1ccc(S(=O)(=O)Cc2ccccc2Cl)c([N+](=O)[O-])c1)N1CCN(c2ccccn2)CC1 | inconclusive [cytotoxic, single point] | 
54 | CC(=O)Nc1cccc(NC(=O)Cc2nc(-c3ccccc3)sc2-c2ccc(C)cc2)c1 | inconclusive [cytotoxic, single point] | 
55 | O=C(CN1C(=O)NC(c2ccc(F)cc2)C1=O)Nc1ccc2c(c1)OCCO2 (stereo not drawn) | inactive | 
56 | Cc1cccc(CN2CCCC(C(=O)c3ccc4c5c(cccc35)CC4)C2)n1 (stereo not drawn) | inconclusive [cytotoxic, single point] | 
57 | Nc1nc2c(ncn2[C@@H]2O[C@H](CNCc3ccc(OCCCN4CCOCC4)cc3)[C@@H](O)[C@H]2O)c(=O)[nH]1 | inactive | 
58 | Cc1cc(C)c(C)c(S(=O)(=O)N2CCC(C(=O)N(C)Cc3nc4ccccc4c(=O)[nH]3)CC2)c1C | inconclusive [cytotoxic, partial curve] | 
59 | COc1ccc(CC(=O)NCC2CCCN(Cc3ccc(OC(F)(F)F)cc3)C2)cc1 (stereo not drawn) | inactive | 
60 | NNC(=O)c1cc2c(s1)-c1cc(Cl)ccc1SC2 | inconclusive [cytotoxic, single point] | 
61 | COC(=O)c1ccc(CSc2nc(C)nc3sc(C)c(C)c23)o1 | inconclusive [cytotoxic, single point] | 
62 | CN(C)S(=O)(=O)Oc1cccc(C(=O)Nc2cccc(Cl)c2)c1 | inconclusive [cytotoxic, partial curve] | 
63 | OC(c1ccc(F)cc1)c1ncc(-c2ccc3ccccc3c2)[nH]1 (stereo not drawn) | inconclusive [cytotoxic, single point] | 
64 | Cc1nnc(SCC(=O)O)s1 | inactive | 
65 | Cc1cc(C)nc(/N=C(\N)Nc2ccc(OCCC(C)C)cc2)n1 | active: 23.1 µM | 
66 | COc1cccc(/C=N/NC(=O)C(C)n2nc(C)c([N+](=O)[O-])c2C)c1O (stereo not drawn) | inconclusive [cytotoxic, partial curve] | 
67 | Cc1cc(CSc2ccccc2)ccc1NC(=O)c1ccc(CN2CCOCC2)cc1 | inconclusive [cytotoxic, single point] | 
68 | C#C[C@]1(O)CC[C@H]2[C@@H]3CCc4cc(OC5CCCC5)ccc4[C@H]3CC[C@@]21C | active: 20.6 µM | 
69 | N#Cc1ccc(-c2nc3ccc(Cl)cn3c2Cc2cccc(F)c2)cc1 | inconclusive [cytotoxic, single point] | 
70 | CCn1cc(C(=O)N2CCN(c3cccc(Cl)c3)CC2)c2cc(OC)c(OC)cc2c1=O | inconclusive [cytotoxic, single point] | 
71 | COc1cc(NC(=O)COC(=O)c2ccc(C)c(S(=O)(=O)N3CCCCC3)c2)c(C)cc1[N+](=O)[O-] | inactive | 
72 | COc1cc(/C=N/N=C2/NC(=O)C(Cc3ccc(F)cc3)S2)ccc1O (stereo not drawn) | inconclusive [cytotoxic, partial curve] | 
73 | Cc1ccc2c(C)nc(Nc3nc(CSc4nc5ccccc5[nH]4)cc(=O)[nH]3)nc2c1 | active: 11.2 µM | 
